Molecular target: PaFSCT (Diaporthe amygdali, UniProt A2PZA5)
Conditions: 3 Co2+; binds in the DMAPP site

PaFSCT, sequence (A2PZA5 390-719 limits assumed): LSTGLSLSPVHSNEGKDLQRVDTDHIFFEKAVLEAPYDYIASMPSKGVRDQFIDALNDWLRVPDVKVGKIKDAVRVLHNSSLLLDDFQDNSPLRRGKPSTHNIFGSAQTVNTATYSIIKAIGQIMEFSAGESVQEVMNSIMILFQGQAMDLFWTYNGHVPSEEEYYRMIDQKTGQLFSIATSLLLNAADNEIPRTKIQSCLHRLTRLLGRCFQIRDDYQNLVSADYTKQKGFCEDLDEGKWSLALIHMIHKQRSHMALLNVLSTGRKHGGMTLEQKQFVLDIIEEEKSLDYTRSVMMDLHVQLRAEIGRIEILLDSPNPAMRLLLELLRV

NCCC(O)(P(=O)(O)O)P(=O)(O)O [pamidronate]
X-ray crystal structure: The substrate analogue pamidronate (Supplementary Information Figure S4) binds in the DMAPP binding site
